# The supplement of paper PMC10037445
# In all, about 2,900 compounds were measured (“IRF Lucia reporter activity, fold change vs agonist alone”: median about 0.9, highest 2% from about 2.8 on). The list shows a part of the results.
# Legend:
# RAW-Dual [1] = assay: IRF Lucia reporter activity, fold change vs agonist alone; cytotoxicity flag (confluency mask): not cytotoxic; higher = enhanced IRF activity
# How it was run: (§1)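 Cytotoxic wells were those whose IncuCyte confluency was below 70% of agonist controls in both mask sets. The cells were RAW-Dual macrophages at 50,000 cells/well in DMEM on 384-well plates, dosed with 50 nL of library stock by pin tool, stimulated with a PRR agonist 1 h later, and kept at 37 °C, 5% CO2 for 20 hours. IRF and NF-κB reporter activity, as fold change over agonist-alone wells, came from supernatant read by QuantiLuc luminescence and QuantiBlue absorbance, respectively.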
# RAW-Dual [2] = assay: IRF Lucia reporter activity, fold change vs agonist alone; higher = enhanced IRF activity; settings: agonist: MPLA (TLR4) […]
# How it was run: as §1
# RAW-Dual [3] = assay: IRF Lucia reporter activity, fold change vs agonist alone; cytotoxicity flag (confluency mask): cytotoxic (confluency <70% of control); higher = enhanced IRF activity
# How it was run: as §1
# [4] = agonist: 3'3'-cGAMP (STING) 10 ug/mL
# [5] = library stock concentration (final ~1000-fold dilution): 10 mM, cytotoxicity flag (confluency mask): not cytotoxic
# [6] = library stock concentration (final ~1000-fold dilution): 10 mM, cytotoxicity flag (confluency mask): cytotoxic (confluency <70% of control)
smiles,measurement,setting,value
COC(=O)C1=C(C)NC(C)=C(C(=O)OC(C)(C)CN(C)CCC(c2ccccc2)c2ccccc2)C1c1cccc([N+](=O)[O-])c1 (stereo unspecified) (library stock concentration (final ~1000-fold dilution): 10 mM),IRF Lucia reporter activity,RAW-Dual [1]; [4],0.134
same,IRF Lucia reporter activity,RAW-Dual [1]; agonist: LPS (TLR4) 0.1 ug/mL,1.96
COC(=O)C1=C(C)NC(C)=C(C(=O)OC(C)(C)CN(C)CCC(c2ccccc2)c2ccccc2)C1c1cccc([N+](=O)[O-])c1 (stereo unspecified),IRF Lucia reporter activity,RAW-Dual [2]; [5],2.39
CC1CC2C3CCC4=CC(=O)C=CC4(C)C3(F)C(O)CC2(C)C1(O)C(=O)COP(=O)(O)O (stereo unspecified) (library stock concentration (final ~1000-fold dilution): 10 mM water),IRF Lucia reporter activity,RAW-Dual [1]; [4],0.781
same,IRF Lucia reporter activity,RAW-Dual [1]; agonist: LPS (TLR4) 0.1 ug/mL,0.613
CC1CC2C3CCC4=CC(=O)C=CC4(C)C3(F)C(O)CC2(C)C1(O)C(=O)COP(=O)(O)O (stereo unspecified),IRF Lucia reporter activity,"RAW-Dual [2]; library stock concentration (final ~1000-fold dilution): 10 mM water, cytotoxicity flag (confluency mask): not cytotoxic",1.15
CCCNC(=O)c1cn2ncnc(Nc3cc(C(=O)NC4CC4)ccc3C)c2c1C (library stock concentration (final ~1000-fold dilution): 10 mM),IRF Lucia reporter activity,RAW-Dual [1]; [4],1.08
same,IRF Lucia reporter activity,RAW-Dual [1]; agonist: LPS (TLR4) 0.1 ug/mL,1.16
O=C(Nc1cccnc1)c1cc(-c2ccnc(F)c2)ccc1OCc1ccccc1 (library stock concentration (final ~1000-fold dilution): 10 mM),IRF Lucia reporter activity,RAW-Dual [1]; [4],0.769
same,IRF Lucia reporter activity,RAW-Dual [1]; agonist: LPS (TLR4) 0.1 ug/mL,1.13
CC(NC(=O)C(NC(=O)OCc1ccccc1)C(C)C)C(=O)NC(CC(=O)O)C(=O)CF (stereo unspecified) (library stock concentration (final ~1000-fold dilution): 10 mM),IRF Lucia reporter activity,RAW-Dual [1]; [4],0.946
same,IRF Lucia reporter activity,RAW-Dual [1]; agonist: LPS (TLR4) 0.1 ug/mL,0.949
CC(C)(NS(=O)(=O)c1ccc2c(Cl)cnc(NC(=N)N)c2c1)C(=O)O.Cl (library stock concentration (final ~1000-fold dilution): 10 mM),IRF Lucia reporter activity,RAW-Dual [1]; [4],1.03
same,IRF Lucia reporter activity,RAW-Dual [1]; agonist: LPS (TLR4) 0.1 ug/mL,1.23
CCOc1cc(N)c(Cl)cc1C(=O)NCC1CN(Cc2ccc(F)cc2)CCO1.O=C(O)CC(O)(CC(=O)O)C(=O)O (stereo unspecified),IRF Lucia reporter activity,RAW-Dual [2]; [5],1.02
CCOc1cc(N)c(Cl)cc1C(=O)NCC1CN(Cc2ccc(F)cc2)CCO1.O=C(O)CC(O)(CC(=O)O)C(=O)O (stereo unspecified) (library stock concentration (final ~1000-fold dilution): 10 mM),IRF Lucia reporter activity,RAW-Dual [1]; [4],0.997
same,IRF Lucia reporter activity,RAW-Dual [1]; agonist: LPS (TLR4) 0.1 ug/mL,0.921
C=CC(=O)Nc1cccc(Oc2nc(Nc3ccc(N4CCN(C)CC4)cc3)ncc2Cl)c1 (library stock concentration (final ~1000-fold dilution): 10 mM),IRF Lucia reporter activity,RAW-Dual [1]; [4],0.0139
same,IRF Lucia reporter activity,RAW-Dual [1]; agonist: LPS (TLR4) 0.1 ug/mL,0.0488
C=CC(=O)Nc1cccc(Oc2nc(Nc3ccc(N4CCN(C)CC4)cc3)ncc2Cl)c1,IRF Lucia reporter activity,RAW-Dual [2]; [5],0.1
O=C(Oc1cccc(F)c1OC(=O)c1cccc(O)c1)c1cccc(O)c1 (library stock concentration (final ~1000-fold dilution): 10 mM),IRF Lucia reporter activity,RAW-Dual [3]; [4],0.121
same,IRF Lucia reporter activity,RAW-Dual [3]; agonist: LPS (TLR4) 0.1 ug/mL,0.903
CCCCC(CC)COC(=O)CC(C(=O)OCC(CC)CCCC)S(=O)(=O)O (stereo unspecified),IRF Lucia reporter activity,RAW-Dual [2]; [6],1.07
CCCCC(CC)COC(=O)CC(C(=O)OCC(CC)CCCC)S(=O)(=O)O (stereo unspecified) (library stock concentration (final ~1000-fold dilution): 10 mM),IRF Lucia reporter activity,RAW-Dual [3]; [4],1.07
same,IRF Lucia reporter activity,RAW-Dual [3]; agonist: LPS (TLR4) 0.1 ug/mL,1.34
C=CC1CN2CCC1CC2C(O)c1ccnc2ccc(OC)cc12.C=CC1CN2CCC1CC2C(O)c1ccnc2ccc(OC)cc12.O.O.O=S(=O)(O)O (stereo unspecified),IRF Lucia reporter activity,RAW-Dual [2]; [5],1.02
C=CC1CN2CCC1CC2C(O)c1ccnc2ccc(OC)cc12.C=CC1CN2CCC1CC2C(O)c1ccnc2ccc(OC)cc12.O.O.O=S(=O)(O)O (stereo unspecified) (library stock concentration (final ~1000-fold dilution): 10 mM),IRF Lucia reporter activity,RAW-Dual [1]; [4],0.484
same,IRF Lucia reporter activity,RAW-Dual [1]; agonist: LPS (TLR4) 0.1 ug/mL,1.23
NC(CO)(CO)CO.O=C(c1ccccc1)c1ccc2n1CCC2C(=O)O (stereo unspecified),IRF Lucia reporter activity,RAW-Dual [2]; [5],1.06
NC(CO)(CO)CO.O=C(c1ccccc1)c1ccc2n1CCC2C(=O)O (stereo unspecified) (library stock concentration (final ~1000-fold dilution): 10 mM),IRF Lucia reporter activity,RAW-Dual [1]; [4],1
same,IRF Lucia reporter activity,RAW-Dual [1]; agonist: LPS (TLR4) 0.1 ug/mL,0.974
CNCCC(Oc1ccc(C(F)(F)F)cc1)c1ccccc1.Cl (stereo unspecified),IRF Lucia reporter activity,RAW-Dual [2]; [6],1.52
CNCCC(Oc1ccc(C(F)(F)F)cc1)c1ccccc1.Cl (stereo unspecified) (library stock concentration (final ~1000-fold dilution): 10 mM),IRF Lucia reporter activity,RAW-Dual [3]; [4],0.863
same,IRF Lucia reporter activity,RAW-Dual [3]; agonist: LPS (TLR4) 0.1 ug/mL,0.665
COc1cn(-c2ccc(-n3cccn3)cc2F)nc(-c2ccnn2-c2ccccc2)c1=O (library stock concentration (final ~1000-fold dilution): 10 mM),IRF Lucia reporter activity,RAW-Dual [1]; [4],1.3
same,IRF Lucia reporter activity,RAW-Dual [1]; agonist: LPS (TLR4) 0.1 ug/mL,1.01
COC(=O)NC(C(=O)NC(Cc1ccccc1)C(O)CN(Cc1ccc(-c2ccccn2)cc1)NC(=O)C(NC(=O)OC)C(C)(C)C)C(C)(C)C (stereo unspecified) (library stock concentration (final ~1000-fold dilution): 10 mM),IRF Lucia reporter activity,RAW-Dual [1]; [4],1.04
same,IRF Lucia reporter activity,RAW-Dual [1]; agonist: LPS (TLR4) 0.1 ug/mL,1.12
COC(=O)NC(C(=O)NC(Cc1ccccc1)C(O)CN(Cc1ccc(-c2ccccn2)cc1)NC(=O)C(NC(=O)OC)C(C)(C)C)C(C)(C)C (stereo unspecified),IRF Lucia reporter activity,RAW-Dual [2]; [5],1.03
Cl.Cl.Fc1cc(-c2cccc3ncc(-c4cnn(C5CCNCC5)c4)nc23)cc(F)c1CN1CCOCC1 (library stock concentration (final ~1000-fold dilution): 10 mM),IRF Lucia reporter activity,RAW-Dual [1]; [4],1.03
same,IRF Lucia reporter activity,RAW-Dual [1]; agonist: LPS (TLR4) 0.1 ug/mL,0.0282
